# PubChem BioAssay AID1745845 (National Center for Advancing Translational Sciences (NCATS), 2022)
# The whole screen tested about 360,000 compounds, of which about 2,600 (0.72%) were called active. Inconclusive means that the source gave no clear call. Such entries were picked first, then a sample of the others. The call rests on the fitted dose curve; in most records, active means well fitted inhibition curve with a large enough effect; inconclusive means small, poorly fitted or top-dose-only effect; inactive means no such curve, though single readings can be large or run the other way. Where the call is inconclusive, the potency comes from a doubtful curve fit.
# Test: Primary qHTS for Inhibitors of ATXN expression; further: nearly all actives have a fitted effect of over 55% in size
# Conditions: HEK-293 ATXN2-luciferase reporter, luminescence, 24 h; activity change, negative = inhibition: at 57 µM (top of the series)
# Outline: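 qHTS (up to 57 uM final) was run with 24 h compound exposure of reporter cells at 37 °C. Each well was multiplexed: SteadyGlo luminescence measured ATXN2-luciferase expression after a fluorogenic Gly-Phe-AFC viability readout (25 uM final).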
# On the % scale 0 is the no-effect control and ±100 the full control effect; potency means the concentration at half of the fitted maximal effect; tags describe the fitted curve by direction and shape.
Structure (SMILES),Potency,"activity change, negative = inhibition"
COc1cc(CNCCSc2nnnn2C)cc(Cl)c1OCc1ccccc1,inactive,
Cc1ccc(NC(=O)COC(=O)c2cccc(C)c2[N+](=O)[O-])cc1S(=O)(=O)N1CCCCC1,inactive,
CC(C)CNC(=S)Nc1ccc(Oc2ccccc2)cc1,inactive,
Cc1[nH]c2ccccc2c1C1=NNC(=Nc2ccc(F)cc2)SC1,"inconclusive: 39.8 µM [inhibitor, single point]",
COc1ccc(C(NC(=O)c2c(F)c(F)c(F)c(F)c2F)c2ccccc2)cc1 (stereo not given),"inconclusive: 39.8 µM [inhibitor, single point]",
NC(=O)C1=CC2C3C=CC2(O)C(=O)OC3O1 (stereo not given),active: 21.2 µM,
Cc1nc(Nc2ccc(Cl)cc2)c2nnn(Cc3ccccc3)c2n1,inactive,
CCc1ccc(-c2nn(-c3ccccc3)cc2CSC(=N)N)cc1,"inconclusive: 39.8 µM [inhibitor, single point]",
Cc1ccc(-c2ccc(/C=C3\C(=O)ON=C3c3ccccc3)o2)c([N+](=O)[O-])c1,"inconclusive: 39.8 µM [inhibitor, single point]",
Cc1cc(C)c(NC(=O)CNC(=O)c2cc([N+](=O)[O-])ccc2N2CCOCC2)c(C)c1,inactive,
COc1cccc(N=Nc2ccc(O)c3ncccc23)c1,"inconclusive: 3.55 µM [inhibitor, single point]",
CCOc1ccc(Br)cc1C(=O)Nc1ccc(C(=O)NCC(C)C)cc1,"inconclusive: 10.6 µM [inhibitor, partial curve]",
CCCCCCCCCCOC(=O)Cn1c(COc2ccc(OC)cc2)[n+](C)c2ccccc21,"inconclusive: 35.5 µM [inhibitor, single point]",
O=C(NCCCN1CCCC1=O)c1ccc(S(=O)(=O)Nc2cccc(C(F)(F)F)c2)cc1,inactive,
CCCC(=O)N1CCN(c2ccc(NC(=O)c3cc4ccccc4o3)cc2Cl)CC1,active: 14.1 µM,
COc1ccc(OC)c(NC(=O)CCC(=O)Nc2nnc(C(C)C)s2)c1,inactive,
Cc1ccccc1C(=O)O/N=C/c1c(N2CCOCC2)n(C)c2ccccc12,"inconclusive: 4.47 µM [inhibitor, partial curve, poor fit]",
Cc1ccc(Cl)cc1N1CCN(S(=O)(=O)c2ccc3c(c2)NC(=O)C(C)C(=O)N3)CC1 (stereo not given),"inconclusive: 17.8 µM [inhibitor, partial curve]",
CCc1n[nH]c(=S)n1/N=C/c1cc(OC)cc([N+](=O)[O-])c1O,,inactive: -20.3% [at 11.3 µM]
O=C1CC(c2cccc(Br)c2)C2=C(COC2=O)N1 (stereo not given),"inconclusive: 0.299 µM [inhibitor, full curve, poor fit]",
O=C(NCCc1ccc(Cl)cc1)c1cc(S(=O)(=O)N2CCCCC2)c[nH]1,"inconclusive: 28.2 µM [inhibitor, single point]",
CC(=O)OCCc1c2ccccc2c(CCCN(C)C)c2ccccc12,"inconclusive: 0.141 µM [inhibitor, full curve, poor fit]",
CC(=O)Nc1cc(-c2cccc(NS(C)(=O)=O)c2)cn2c(-c3ccc(F)c(Cl)c3)cnc12,"inconclusive: 35.5 µM [inhibitor, single point]",

Structure (SMILES),Potency,"activity change, negative = inhibition"
Cc1ccc(NC(=O)CC2Nc3ccccc3NC2=O)cc1C (stereo not given),inactive,
CCCCNC(=S)Nc1ccc(SC(F)F)cc1,inactive,
CCCCCn1c(N2CCN(c3cccc(Cl)c3)CC2)nc2c1c(=O)[nH]c(=O)n2C,"inconclusive: 31.6 µM [inhibitor, single point]",
COc1ccc2c(Sc3ccc(C)cc3)c(C(=O)NC(C)C)[nH]c2c1,inactive,
COc1cccc(Cn2cnc(-c3ccccc3OC)c2-c2cccs2)c1,inactive,
CCOc1ncccc1C(=O)N1CCN(c2cc(Cl)ccc2C)CC1,"inconclusive: 9.47 µM [inhibitor, partial curve, poor fit]",
O=C(CCc1ccccc1)NNC(=S)NC(=O)c1ccc(Cl)cc1,inactive,
Cc1ccc(Nc2c(C(C)C)c(C)c(C#N)c3nc4ccccc4n23)cc1,"inconclusive: 39.8 µM [inhibitor, single point]",
COc1ccc(S(=O)(=O)Nc2ccc3oc(C)c(C(C)=O)c3c2)cc1,"inconclusive: 11.2 µM [inhibitor, partial curve, poor fit]",
CN(C)S(=O)(=O)Oc1ccsc1C(=O)Nc1cccc(Cl)c1Cl,"inconclusive: 35.5 µM [inhibitor, partial curve, poor fit]",
Cc1cc(Br)c2c(c1)/C(=C/C(=O)c1cccs1)C(=O)N2,"inconclusive: 37.7 µM [inhibitor, partial curve, poor fit]",
CCCCCCCN(C(=O)CCl)c1cccc(C)c1,active: 25.1 µM,
COc1ccc(C(=O)NNC(=S)NC(=O)c2ccc(OC)cc2)cc1,"inconclusive: 25.1 µM [inhibitor, partial curve, poor fit]",
COc1ccccc1-c1cc(C(=O)NN)[nH]n1,inactive,
CC[C@]12c3[nH]c4ccc(OC)cc4c3CCN1C(=O)C(CC(=O)NC/C=C(\C)CCC=C(C)C)C[C@@H]2C(=O)N1CCN(C(=O)c2ccco2)CC1 (stereo not given in full),"inconclusive: 39.8 µM [inhibitor, single point]",
O=C1CN(C(=O)COc2ccc(Cl)cc2Cl)C(c2ccccc2)c2cc(F)ccc2N1 (stereo not given),"inconclusive: 20 µM [inhibitor, single point]",
CCOC(=O)c1cn2nc(N3CCCC3)ccc2n1,"inconclusive: 10.6 µM [inhibitor, partial curve, poor fit]",
CCCn1c(NC(=O)c2cccc(S(=O)(=O)N3CCCC3)c2)nc2ccccc21,active: 15.8 µM,
CCc1c(C)nc2ncnn2c1N1CCN(S(=O)(=O)c2ccc(OC)cc2)CC1,"inconclusive: 14.1 µM [inhibitor, partial curve, poor fit]",
COc1cccc(CNC(=O)CN2C(=O)CSc3ccc(S(=O)(=O)N4CCCCC4)cc32)c1,inactive,
Cc1nc2c(OCc3ccc(Cl)cc3Cl)cccn2c1N(C)Cc1cccs1,active: 8.91 µM,
Cc1ccccc1N1C(=O)c2sc3nc4c(c(=O)n3c2C1=O)CCC4,"inconclusive: 35.5 µM [inhibitor, single point]",
